# Assay results reported in paper PMC10726135.
# This is one part of the list. At the low end of the ranking the order means little. The protein was read in a cell extract, so binding may be indirect.
# Biological target: T1, HNF4alpha2 (COS-7 nuclear extract) (UniProt P41235)
# T1 sequence: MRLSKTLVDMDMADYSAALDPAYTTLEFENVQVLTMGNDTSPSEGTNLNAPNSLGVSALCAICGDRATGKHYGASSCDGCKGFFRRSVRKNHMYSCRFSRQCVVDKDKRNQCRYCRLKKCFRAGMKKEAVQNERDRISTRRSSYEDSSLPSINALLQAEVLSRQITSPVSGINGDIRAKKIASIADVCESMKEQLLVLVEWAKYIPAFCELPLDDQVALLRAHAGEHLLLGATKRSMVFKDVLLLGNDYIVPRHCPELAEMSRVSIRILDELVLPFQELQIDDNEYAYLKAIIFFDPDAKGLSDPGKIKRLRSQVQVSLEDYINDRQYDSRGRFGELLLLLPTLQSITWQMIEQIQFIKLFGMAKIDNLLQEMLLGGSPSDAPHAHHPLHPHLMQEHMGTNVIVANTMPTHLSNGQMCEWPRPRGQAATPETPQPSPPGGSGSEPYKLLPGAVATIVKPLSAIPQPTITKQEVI
# Assay: protein-binding microarray
# Conditions: COS-7 nuclear extract on double-stranded Agilent 4x180k PBM; binding buffer, salt, pH and temperature not given; high values mean tight binding; double strand, one strand shown; sequences stand for … in …GCCTAGGGAGATTAGAGTATCGGTCGA
row,Sequence,binding signal (log2 normalized intensity)
1,GTGTAAACAAGTGAGCATGGCTGTGTTCCA,0.523
2,TTGTTCAATAAGCAATACATTGAACTTTGA,7.41
3,AGAACCAAAGTCCTAGAGTCCCTATTTGCT,-1.11
4,CACTGGGGTCATGGAGCTGGAGGGCAAAGG,3.25
5,AGCAATTCAAATTCTTTGCCATGACCTTTG,5.51
6,TCTGTGTAGAAATTGTGGCTTGTGTAGTTA,1.65
7,TTCTCATCTTATCTAGTTTCCTAGCTCACT,-0.208
8,GCAAGCCAGTCAGAATCTCTCTGTAGGTAA,0.523
9,ACAGTGATTGTCACAAGACTGTTATCACAG,-0.552
10,TGACCTTTGAAACTTACATTCTAAAGCAGA,4.45
11,TCTGGGTTAAACGTGCAGCAATAGGTCAGA,1.78
12,ACAAGGTGTGTTTGAGCAGGGGTGAACAAA,0.938
13,TACCATGTGTTGGCACTTTGGACTTGAGAA,4.51
14,TCCAAAGGTCACAGTAGGGAAAGTGGGGGG,1.49
15,CCTCTCTCTCCTGGCCTCTGAGATTCGGTG,-0.573
16,AGGGCCTAGAAGAGTTCCTGACAATTGGCC,-1.19
17,TGAGGCTAAGAGGTGAACACATTCCTCATT,-1.18
18,GACCAGCATTCTTTCTGCTGCAATTTAAGC,-1.25
19,TGCTCTCTCTCTTTTTCTGAGCCTGGGTCA,1.91
20,TTGCTTAAGCATAGCAAAAGTGACCTTTGC,8.56
21,AAGGTTGGTCTTAGGACCACATGAGTAAAC,-0.756
22,TGCAGCGGCATTCTCTGGTCTGCGGTTGTG,1.25
23,CACCCCAGCAAACAGGTCCTGCTGGTTTGC,0.79
24,TTTCTGAGCAGGATGTCCAGAATGAGTGTG,1.49
25,GTGGTGAGGAAAAGGAGGAGTTTGACCCCA,6.43

row,Sequence,binding signal (log2 normalized intensity)
1,ACTGGGTCTTAATAAGATAATAAGTGACCC,3.78
2,TCCTTGATTAAACTTTAGTCAGATTCCTCT,1.33
3,TCAGTGAAGGCCTCTGATGATTCTAAAGGC,-1.26
4,TCCCTAACCCTTCAAGGGCCACTCAGTTGA,-1.07
5,CAAGGACACTGAAAGGCATTCTGCCAACAC,-1.1
6,ATTTGCCACCAATGCCTCTATGTAGCAATC,-0.194
7,AAAAATAGGAGACTGTCTTAGGAAAGAACA,-1.08
8,AAGCCTTATCACTGTTTGGCCTATGGGAAA,1
9,TGGTATGCTAGAGTACTTGGACTTTAACCT,9.48
10,TAAAGTTCAGCTTCTCTTGTTTGTGTAACT,1.07
11,AAAGAACAAACTTCCCCTGCAGCTGATCAT,-0.953
12,GACAGATGAAAGCATATTTGGCCACATCCT,-1.08
13,GTTCTGCAGACTCCCTAGAAGAGTGAACCT,1.73
14,CATCCACATGGGCGTCACCAACCAGCCCTC,3.08
15,TGGATCAGCACTGGGTGGGGATAAGAAAAG,-1.09
16,GGTGAGATAAGAAGACTCCAGGGGACTGCC,-0.872
17,GCTGCGCGGGGCCTCCCAGTGGTATGCCTC,-1.19
18,GATAAGAGAAGTTGCTCTTTACACCATTGC,1.25
19,GCTGCATGTCATGACCTTCATCAATCAGCC,1.29
20,ATAAAACCAGTCAGGCAAACAACAGGCATC,-1.07
21,CTTTGGACTTTCAAAAGTTAAGGTCAAGAC,1.94
22,GCTCCTGTTCCTTTGTTACACTGGCTGCCC,1.93
23,TTATCTTCACATTCCATCATCACGGTGGAC,1.8
24,CGGGGATGGCAGACGGGGCTCTCAGAATCT,-1.11
25,CAGCTGGGGCCACCTTTTCAGCTTCCTCCT,-1.01

row,Sequence,binding signal (log2 normalized intensity)
1,CCTTTGACTCATTATCCCCCGCAACTATTT,3.26
2,TAAGCACTTGTGGTATGTTTGGATTGGGCA,2.14
3,ATGACTCTCTTATAGGTGTTTATAAAGTTG,2.26
4,TAGACAAACAGCAATAGCAAGACTGCAAAA,-1.25
5,GACTAGGCACAGGAACCTGTTTTACAGGAC,-1.25
6,CTTCATAGTGGTTTGACTTTTTTTTTTTTT,2.55
7,CCACATCGAAGGCCAAGGGATTTCAGTGCC,-1.07
8,AAGGAGCTTGGGAAGACAGATGTGATATTC,-0.781
9,CTTCTCACCACCTCTGCTGCGATCACCCAG,-1.13
10,GCATATCTCTAGATCTCAGTTGGTCCAAGG,1.83
11,CAACTAGGCCTGAAATTTGGCCTGCTGAGC,-1.17
12,ATAACACTATTTGATGAGTCTTAGAGTCCA,2.26
13,ACTTTGCCCTTTTTTTCTCTCCCCTTTTAA,2.54
14,GTGTCAGTCCAGAGTTTGTGGCTCCATACT,-0.558
15,ACCGTCTTGTGGATCCTTGGAGGACCTTGG,1.76
16,AATATGTGGACTTCAAAGGTACTTATCAGA,1.35
17,CCCCCTATGTAAAGGCCTTTGAAGCTTGAA,2.52
18,CCTCAAATTACAAAAGGAGTTGGGGGACAG,-1.18
19,GCCAACCTTGGGTCTACATGGAAGCCCAGA,-1.18
20,AGAATAAATATTTGGTGAATAAACAAATAA,-1.09
21,GCAGACATTTAGGCAAACATAAACTCAGAG,-1.1
22,CACCAACAGGATTGTGAAACGTTTGAATTC,0.425
23,AGCCAGTGAACCTTTGTCCCGTTATGGCAC,2.88
24,ACATTAATCAGTCGCGTATCTGACTTTATC,0.796
25,TCACTGGGAGAGAAAGCTAATTTAATAAAC,-1.11

row,Sequence,binding signal (log2 normalized intensity)
1,TCCTCTTATCTTCAGGTTTGCTAATATCTG,1.35
2,GTAAAATGGACATAGTAACAACCTAAATCA,-1.07
3,TCCACTAACTTGAGTGTGCACCCTGGTCTC,1.66
4,AAAATACAGCTGGGAAAAGGCGCATGCATA,-1.05
5,CTGTCCCTTCTTGGCAAGTTAATGTGGCCT,2.29
6,CACAGGCAACAGAGGAGCATGGACTTCTGA,1.32
7,GTTTGCATTTTAACCTTTGGCTGGTAGAGC,3.5
8,GAGACCTCTAGACTCCAGCTAAAGCCTGCT,-1.1
9,CGAAATGTGGGTGAGGCTGTGATGTTTGCC,1.31
10,CAGTAGTATTACCTGCATCTGCCCAGCAGA,-1.09
11,GCAAACCTACCTGAACTTTGCCCCAGAGGA,5.9
12,CTTTCCGTTAGGCTACAGTGGTAACCACAG,-1.13
13,TTAATACTTTGGAACTCAGTTAATGTACAG,1.49
14,TGTTTCTTGTCCAGGGACTTTGAACACTTC,4.36
15,GATGACATCATCTGTTTGTACGCGTCGAAC,-0.199
16,GACAGGAACATCTGATTTCCCCGTCCCAAG,2.96
17,AAGGTCACTAATTGGAAGCTCTTTCCCTCC,0.63
18,GGCTGTATGTACACTTGCCCTCTCACCAGA,1.21
19,TGTTTGGATTGGGCAATGACCTGGACAGGT,1.73
20,TGCAATGCATGCTGCCAAACTGCCCAGCAG,-1.15
21,ACCAAAGGTCTTGTACAAAGGTCCTGTGGG,1.66
22,TTCCATATTCTATCAGTAGGTACGTTTGTG,2.42
23,TTTTCAGACCTTGCATTCTGAGGAACCAGA,-1.07
24,AACCCGGGCGCACAAGATGCCGCCTCCCCG,-0.673
25,AGGTGAGCAGGCAGAGGTCAATGTCCACAC,5.59

row,Sequence,binding signal (log2 normalized intensity)
1,TGAGATAGGTATGATAACCCCCGTCACTGC,3.44
2,ACAGAGATCAGAATCATAAAGCAGGGAGAG,-1.1
3,GGCAGCTTAAAAATGTTGACGCTATTTTAG,-1.05
4,CAAGGAGGCCCCAACATTCCAGAGAAGCAC,-1.2
5,TTGGCAGCCACTGAGGCTCTGTGCCTTGTA,-0.881
6,ACACAGGCTCAACGGGTTAGACGCACGGCA,-1.06
7,ACCAAGGCTGCTTAACAAACACAAAAAGCG,-1.13
8,ATTTTACACCTTTTCTAGCTGAGTTGACCT,4.46
9,GGGACAGATGTTTGGTTGAGCAAGCTGACA,-1.08
10,GGGAGGTTATCTTGGGGCTGATGTCTTTCT,1.74
11,TCAAACAGTCTAAAAACCATAGACATTCCT,-1.1
12,CAAACTGCCCAGCAGAAAAGCTGTACCAAT,-1.1
13,AGGTTTTGAGGGAAGTGAACCAATCTTGAG,-0.0415
14,TAATCAAAGAGAAAAACATTGCATACTCAG,-1.09
15,CAGTTCAGGCCATCACACTCCTACCCATTC,-1.29
16,ACAACACTCAGGATACCTAAGCCCCATGCT,-1.06
17,AGCAGAGCACGATGAATAGGGACGTTCTAC,-1.02
18,ACTCTAACTGGCTTTAAGAGGAATGCTTTG,-0.822
19,GCAGTTCCTGATCTTTGACCTGGAGCATGA,4.61
20,AGGGAAGGCTGCCGTCCTCAGTGAATCACA,-1.08
21,GTTTTGGCCAACAGAGGGGTCAGAGGCCAG,2.43
22,TCCTGCCAAACCAGTTCAACAAGAATTCCC,-1.06
23,AGTCTCAAAGGTCAGATGACAGAATTGGTC,3.5
24,CTTCAGGATGAAGGCTGCTGCCTGAAAGGC,-1.1
25,GAGCAAAGGGCATGGAGGATTTAGATAACA,0.799

row,Sequence,binding signal (log2 normalized intensity)
1,GGAGCCACTGAAGTGAGTTAATAAATACTG,-1.13
2,GCTGATTACAGGTTGCAGTAAAGAAACTGG,-0.945
3,AATCCTGCTCCTTCTGAATCTGTTCCACCT,0.623
4,GTTCTCTAGAAACAGAGCCCAAGGCAAAGC,-1.08
5,TGAAGTCAAAGGAGGCATTCCTGCAATCAG,-0.786
6,CAGCCTGGAGGAGGGCGAGGCCGAGCCTCA,-0.906
7,TTGCCTAACTGCTGCATGTCATGACCTTCA,3.45
8,AGTGGAGAAACCTGACAGACTGGACTGCTG,-1.09
9,AGCCCCTTTTGGAATCCCCATCTCACCATA,3.22
10,AGCCTTTGAGAAGCAGGAGCATGGGGGATG,-1.3
11,GCTGGGATGATTCCCTTATCTTCTCCCCTG,1.8
12,CTCTTTGGCCTGGCATTTGAGACTAGCCAC,-0.813
13,AGAGGTCAGCCCACAGGTCAATCCAGGTTG,0.169
14,GAATGTAGACCTTTACCACCCTCACAGCTC,0.795
15,TTCAGCGGTGCATTTTTTTCCACCCTCCCC,4.27
16,CACATTAACTGTGCTTCTGGGGTATAAAGG,1.72
17,AAAAAAAAAGGCAGTCCTTAGATCCACGGA,-1.21
18,TCATTCTAACCCAAATGCAAATACCTATAG,1.36
19,GTTGTACCTTGACCCAAGAAATAAAAACAG,2.03
20,TGAGAGGCCAGTTTCTCCACAGCCTCACCA,-1.14
